From the supplement of paper PMC3334620
Whole data set: some 33,000 sequences, median “E-score (-0.5 to 0.5)” near -0.01, cut for the highest 2% near 0.26. Some of the results follow.

Target: Ste12 (UniProt P13574)
Assay: PBM E-score (8-mer binding enrichment) (E-score (-0.5 to 0.5)); higher = stronger / more preferred TF binding; most listed sequences are background and not binding sites
Conditions: protein concentration: 200 nM; construct: GST-DNA-binding domain
In short: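 PURExpress in vitro transcription/translation supplied GST-tagged yeast transcription factors, either full-length or DNA-binding domain. Applied at about 100-200 nM to universal all-10-mer Agilent arrays double-stranded by primer extension, the bound protein was detected with fluorescent anti-GST. E-scores, modified Wilcoxon-Mann-Whitney statistics, were given by the Universal PBM Analysis Suite to ungapped eight-base words pooled with their reverse complements after masliner normalisation.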

Sequence	PBM E-score
AGTCTAAA	0.0666
CCAGAAAC	0.147
ACCAACTC	-0.0963
ACGCCAGT	-0.084
ACAATCAG	0.0185
GGGTCTTA	0.0466
CACGGCAC	-0.113
CACTTAAC	-0.121
ACCTCCGT	-0.207
GTACGTTA	0.0372
ATTATAAT	0.218
CTTGTGGC	-0.0399
CTCGAGAC	0.0838
ATCAACTC	0.00506
CCGCGCGA	0.169
GTTATATA	0.215
TGTACGAA	0.0665
CAGTAGGC	-0.0958
AACCCAAG	0.0412
CGGGGCGA	0.163
AGTACGAT	0.0966
GAAGCAAA	-0.0245
AAGCGGCA	0.138
AAGTTGCA	-0.0946
GAGATATA	0.039

Sequence	PBM E-score
ATTCCTTC	0.162
ATCCACAA	0.0176
CACGTCGC	-0.0469
GCAGGAGC	-0.143
CAGCTGAC	-0.0464
CACACTCG	0.138
ACGGCAGT	-0.142
CGTTGTGC	-0.177
AAGGCGAC	-0.133
CTATCGGC	-0.0597
CCCCTGTA	0.0764
CAATCAAA	0.211
AACAATCC	0.0898
ACACTAAT	0.169
CGGCTGTC	-0.0342
CCCGGCTC	-0.115
CGAGCGTC	0.0438
CCTTCGAA	0.0143
AGACTCTA	0.0686
TAGATTAA	0.149
AAGCCTCG	-0.0104
GATCAGAC	0.02
CCGCCCGC	0.181
ATTATTGC	0.116
CCTTGTAA	0.134

Sequence	PBM E-score
CCAAACAA	0.125
ACACCATG	-0.108
GGAAACAA	0.13
ACGAATAC	0.0452
AATACGGC	0.131
AGTTGTGA	0.127
AATTACCT	-0.0648
GGGCATTA	-0.19
CTTAGCTC	-0.112
CCTTCCAC	-0.197
GCTCACTA	-0.0368
ACCGGCAC	-0.028
ACAGTGAG	0.0377
CTTAGACC	-0.136
AGAGGGAG	-0.106
AAAATCTT	0.131
TCGGTAGA	-0.00813
CAGTCTAA	0.12
TGACCCCA	-0.128
GGCTAGCC	-0.419
AGTTAACG	-0.00403
ACGGGCTG	-0.0803
GGCCGTTA	0.00167
GGGGGGCA	-0.186
GTCGTTTA	0.151

Sequence	PBM E-score
ACCCCAGT	-0.0165
AGATGATG	-0.0415
CTTCCATA	-0.00705
CAGGAAGG	-0.212
CAGGTAGA	0.0966
GAGGCACA	-0.00206
AGGAGGCG	-0.217
TAAGCGTA	-0.113
CGCGGTTC	0.136
AAGGTACC	-0.113
GTTACAAA	0.384
CCAGCGCA	-0.222
AGGGGCTC	-0.321
TACCCTCA	-0.0714
GCCCAGTA	-0.164
GACGAACC	-0.181
ATGGTAGC	-0.0629
ACTTGTAC	0.0044
CCTCTTCC	-0.221
TTCATGAA	0.228
GCGTGTGA	0.159
AACGACCT	0.104
CTGTGTGA	0.195
CATTGCGG	0.0911
ATCGCAAG	-0.175

Sequence	PBM E-score
CAGGGGCG	0.249
CGCTTATC	0.12
ACCCGTAG	-0.2
ACAACCTC	-0.0148
GGTGTACA	0.0618
CTAAAGTA	-0.129
AACGCCTC	-0.124
CCAGTAAC	-0.107
CCAATTTA	0.201
AGAATGGA	0.00637
CTTCCCCA	0.0584
ATTGCCGA	0.0896
AGCCTGCA	0.0896
CTATATAG	-0.0246
TACTGAGA	-0.0624
ACTTCTTA	0.00388
AAACGGGA	0.245
AAAAATCG	0.0878
AAGCTCCT	-0.294
AAGTTCCG	-0.0525
GTGCAGGA	0.0423
CTATGATA	-0.0247
CAGCTCTA	-0.241
GCCCCGAA	0.118
CATGGGGG	-0.251

Sequence	PBM E-score
TGCCGGCA	0.202
AAAGCAGG	-0.0312
GCATCCCA	0.017
GGTTGGTA	-0.0098
CGCTACCG	-0.0911
AGCATAGC	-0.283
GGTCTCTA	-0.151
GGAGTAAC	0.0279
AGCGATCA	-0.138
CAGCGCGA	-0.113
AGCGGGGA	0.111
CGGGTTTA	0.304
ACACCGCT	-0.0123
CATTCTAG	-0.0323
ATCTCGAG	0.0611
GGGCTAAA	0.0353
CACCTACC	-0.116
CAGAAAAA	0.18
CCAACAGA	-0.0441
GCTAGGAA	0.035
CCTACGCG	0.0195
AGTGCTCG	-0.0472
GAGCAATC	0.00029
GGAGGCCA	-0.191
ACCTTCTA	-0.0603

Sequence	PBM E-score
GCCCCATA	0.0133
AGAGGCAA	-0.177
CAACGGTC	-0.13
AGAGGCGA	-0.195
ACACGTAC	-0.104
AATTTAAA	0.269
GCTTGGAA	-0.0415
AGGTAATG	0.0349
AAATTTCT	0.121
CCTATGCA	-0.155
CACAGAGG	-0.251
GGACCTAC	-0.126
ACACTTCG	0.109
CCTGGCCG	-0.108
CTCGTGAC	0.0961
ACGACCAA	-0.106
ATCTGCCG	-0.0477
CGGGGTAA	0.215
CATTCGGA	0.107
CCATCCAA	-0.0209
ACAATTTC	0.0778
CTGGTAGA	0.00542
